Results: PubChem BioAssay AID504706 (National Center for Advancing Translational Sciences (NCATS), 2011)
Hit rate of the full screen: of about 320,000 compounds, about 200 (0.062%) were called active. This list was built around the results that the source calls inconclusive (neither active nor inactive); the mix of calls is not that of the screen. Calls come from the whole dose curve; as a rule, active = well fitted activation curve with a large enough effect; inconclusive = small, poorly fitted or top-dose-only effect; inactive = no such curve, though single readings can be large or run the other way. Potencies of inconclusive entries are left out as doubtful fits.

test: qHTS assay for re-activators of p53 using a Luc reporter; details: H1299 p53-A138V BP100-luciferase reporter, luminescence, 24 h; series mostly up to 92.2 µM; activity change, positive = activation: at the top concentration; note: nearly all actives have a fitted effect of over 45% in size; for activity change, positive = activation: % of control where 0% means no effect
Summary of the method: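 H1299 (p53-null), stable ts p53-A138V + BP100-Luc; 1000 cells/well, Opti-MEM/10% FBS; cpd 4 pt, 1:5; 24 h, 37 deg C, 5% CO2; detection reagent 10 min RT; luminescence.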
Potency is the fitted concentration of half-maximal effect; tags give direction and shape of the fitted curve.

SMILES | Potency | activity change, positive = activation
O=C(CSc1nc2ccccc2o1)Nc1nc2ccccc2s1 | inconclusive [activator, partial curve, poor fit] | 
CC1CC(C)CN(C(=S)Nc2ccc(SC(F)F)cc2)C1 (configuration not stated) | inconclusive [activator, partial curve, poor fit] | 
COc1ccc(CCc2nc(-c3cccs3)no2)cc1 | inconclusive [activator, partial curve, poor fit] | 
CCOc1ccc(-c2noc(-c3cccnc3)n2)cc1OC | inconclusive [activator, single point] | 
Cc1ccc(CNCc2cc3c(C(C)(C)C)nn(-c4ccccc4)c3[nH]c2=O)cc1 |  | inactive: -2.82%
Cc1nn(C)cc1/C=C/C(=O)c1ccc(O)cc1 | inconclusive [activator, full curve, poor fit] | 
CC1(C(=O)NC2CCCC2)CCC(=O)N1Cc1ccc2c(c1)OCO2 (configuration not stated) | inconclusive [activator, partial curve, poor fit] | 
O=C(COC(=O)Cc1ccc(Cl)cc1)NCc1ccc(F)cc1 |  | inactive: 5.93%
CCCCNC(=O)c1cc(-c2ccc(OC)cc2)on1 | inconclusive [activator, full curve, poor fit] | 
O=C(O)c1ccc(COc2ccc(Cl)cc2)o1 | inconclusive [activator, partial curve, poor fit] | 
COC(=O)C1CCN(C(=O)/C(C)=C\c2ccccc2)CC1 | inconclusive [activator, single point] | 
O=C(Nc1ccccc1O)c1ccc(NC(=O)C2CC2)cc1 | inconclusive [activator, partial curve, poor fit] | 
O=C(CSc1ccc(Cl)cc1)NCc1ccco1 | inconclusive [activator, single point] | 
Cc1cc(-c2ccccc2)[nH]c(=O)c1S(=O)(=O)c1ccc(Cl)cc1 |  | inactive: 0.616%
CCn1nnnc1SCC(=O)Nc1nnc(C(C)C)s1 | inconclusive [activator, full curve, poor fit] | 
Cc1cc(OCC(=O)N(C)C2CCCCC2)ccc1Cl | inconclusive [activator, partial curve, poor fit] | 
Cc1cccc(C)c1NC(=O)COn1nnc2ccc(C(F)(F)F)cc21 |  | inactive: -9.41%
Cn1cc(/C=C2\SC(=O)N(c3ccccc3)C2=O)c2ccccc21 | inconclusive [activator, full curve, poor fit] | 
Cc1cccc2cc3c(N)c(C(=O)N4CCCc5ccccc54)sc3nc12 | inconclusive [activator, partial curve, poor fit] | 
COc1ccc(/C=C/C(=O)c2ccc(O)cc2)cc1CN1CCOCC1 | inconclusive [activator, full curve, poor fit] | 
c1ccc(-c2ccc(-c3nccc4ccccc34)[nH]2)cc1 |  | inactive: -5.13%

SMILES | Potency | activity change, positive = activation
O=[N+]([O-])c1ccc(O)c(/C=N/Nc2ccccc2[N+](=O)[O-])c1 | inconclusive [activator, partial curve, poor fit] | 
COc1ccc(S(=O)(=O)N2CCCCC2)cc1NC(=S)Nc1ccccc1 |  | inactive: -3.41%
CC(C)CCNC(=O)C(=O)NC1CCCC1 | inconclusive [activator, partial curve, poor fit] | 
CN(C)/C=N/c1nc(-c2ccc3ccccc3c2)cs1 | inconclusive [activator, partial curve, poor fit] | 
O=C(NC12CC3CC(CC(C3)C1)C2)c1ccc(-c2ccc(Cl)cc2)o1 | inconclusive [activator, partial curve, poor fit] | 
CN1CC(=O)NC1=NC(=O)c1ccc(Cl)c(S(=O)(=O)N2CCCCCC2)c1 |  | inactive: -0.656%
CCCOc1ccc(NC(=O)CC2C(=O)N(Cc3ccccc3)C(=S)N2Cc2cccs2)cc1 (configuration not stated) | inconclusive [activator, partial curve, poor fit] | 
CC/C=C/C(=O)N1CC2(CC(c3cccc(NC(=O)CC(c4ccccc4)c4ccccc4)c3)=NO2)C[C@@H]1C(N)=O (some centres not stated) |  | inactive: -1.13%
COc1ccc(C2=Nn3c(nnc3-c3ccccc3Cl)SC2)cc1OC1CCOC1 (configuration not stated) | inconclusive [activator, partial curve, poor fit] | 
O=C(NCCc1cccs1)C1CC(c2ccc([N+](=O)[O-])cc2)=NO1 (configuration not stated) | inconclusive [activator, full curve, poor fit] | 
Cn1c(-c2sc3cc(C(F)(F)F)cnc3c2-c2ccccn2)n[nH]c1=S |  | inactive: 1.38%
COc1ccccc1/C=N/NC(=O)c1ccc2c(c1)OCO2 | inconclusive [activator, partial curve, poor fit] | 
CCNC(=O)NC(=O)CSc1ccc(S(=O)(=O)N2CCCCC2)cn1 |  | inactive: -6.45%
FC(F)(F)c1nnc2c(Sc3ccccc3)nc3ccccc3n12 | inconclusive [activator, full curve, poor fit] | 
O=C(NC1CCCC1)C(c1ccncc1)N(C(=O)c1ccco1)c1ccc(F)c(Cl)c1 (configuration not stated) |  | inactive: 0.712%
Cc1ccccc1N=CC=C1OC(C)(C)C(C)(C)O1 |  | inactive: 2.12%
Cc1cccc(/C(N)=N/OC(=O)c2ccc(Br)o2)c1 | inconclusive [activator, partial curve, poor fit] | 
COC(=O)c1ccc(Oc2ccc(S(=O)(=O)N3CCCCC3)cc2N)cc1 | inconclusive [activator, partial curve, poor fit] | 
O=C(Nc1nc2ccccc2s1)C1CCN(S(=O)(=O)c2cc([N+](=O)[O-])ccc2Cl)CC1 | inconclusive [activator, full curve, poor fit] | 
CCOc1ccc(N/C=C/C(=O)c2ccc(C)cc2)c([N+](=O)[O-])c1 | inconclusive [activator, single point] | 
CN(Cc1ccco1)S(=O)(=O)c1nnc(NC(=O)c2cccc(Cl)c2)s1 | inconclusive [activator, partial curve, poor fit] | 
